In the supplement of paper PMC11417369:
Some of the results follow.

The sequences below were run on PfAP2-HC AP2 domain (GST-tagged) (assay: gcPBM binding intensity (ln(normalized median fluorescence intensity)); higher = stronger DNA binding).
How it was run: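 An Agilent 4 × 180k array of primer-extended double-stranded 36-bp intergenic genomic probes, with negative controls, was incubated for 1 h with GST-tagged P. falciparum DNA-binding domains expressed in E. coli. Alexa488 anti-GST antibody detected bound protein, scanned at 488 nm. Binding intensity is the highest Masliner-normalised natural-log median intensity across replicate spots of either probe orientation.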

Going from “ATCAGATATATATATTGTACATTTATATATAAATCA [XGTACX_site1960]” to “ATTAAAAATTATATTTTATAAAAATTAAAAGAAATA [CACACA_negctrl_site65]”, the “gcPBM binding intensity (ln)” value falls from 9.52 to 9.23.

Compared with ACTTTTTTGAACAACGTGCACGTATTCATAACAAAA, “TTTTCTTTATTATAATGTACTCACAAATAAATATAA [XGTACX_site7298]” is lower in “gcPBM binding intensity (ln)” value: 9.46 for the first, 9.39 for the second.

Compared with “CTATAATAGAAGTGTACACACATATTTATGTCTGTA [CACACA_site7462]”, “TTTCATTTTAGAAGTACACACAAAAAATAAAATAAT [CACACA_site2141]” is lower in “gcPBM binding intensity (ln)” value: 9.88 for the first, 9.8 for the second.

Compared with “AATATCACATTCCACGGTACACACTAAAAGAAAAAT [XGTACX_site7653]”, “ATAAATACGATTAATTAGGTTTGTATAAATTAAATT [GTGCAC_negctrl_site635]” is lower in “gcPBM binding intensity (ln)” value: 10.1 for the first, 9.53 for the second.

Going from “TCATGTAGTAAAAACTGTACAAATTATTTATCATGT [XGTACX_site1727]” to “ATAACTTTTGCGCGTACACACATTTATCCTCTTTAT [CACACA_site209]”, the “gcPBM binding intensity (ln)” value rises from 9.61 to 10.3.

Compared with “CTTAAAAACAAAAATGCACACATAATAAGCATATGT [CACACA_site9149]”, “ATTAAACTCATTAAGAGTACAGATAACATTAAAGTA [XGTACX_site8697]” is lower in “gcPBM binding intensity (ln)” value: 9.79 for the first, 9.61 for the second.

First: TGAAATTAGATATATACACACATATAGATTTATATG [CACACA_site7619]
Second: AAAATTGTGAAAGGGAAGATGATCAAATTGTTAAGG [CACACA_negctrl_site1492]
The “gcPBM binding intensity (ln)” value of the first is higher: 9.84 for the first, 9.8 for the second.

Going from “TATAATGGTAAAAACACACAAATATGAAGATGTTAA [CACACA_site6479]” to “GATGGGCAAATTTACTGTACTTTTATAATATTTTTT [XGTACX_site4830]”, the “gcPBM binding intensity (ln)” value falls from 9.83 to 9.78.

Going from “AAAAAAAATTATATTTGTACGCATTAAAAAATCTAA [XGTACX_site1616]” to “GTACCTATAAATATTACACACATTTTCATTTTTAAC [CACACA_site7022]”, the “gcPBM binding intensity (ln)” value rises from 9.45 to 9.88.

Compared with “TTAAAAAAAAATAAAGGTACACGGAGAAATCCTTTT [XGTACX_site7509]”, “ATATATTTATTATTAGGTACACATATATATATATAT [XGTACX_site5045]” is higher in “gcPBM binding intensity (ln)” value: 9.39 for the first, 9.79 for the second.

Compared with “AACCACCACACCATCACACATAAGATTAGACGAGTA [CACACA_site6063]”, “TTATATAGAATTAATTTCTTTTTTTTCTTTTTTAAA [CACACA_negctrl_site1308]” is lower in “gcPBM binding intensity (ln)” value: 9.97 for the first, 9.29 for the second.

Going from “TGTAGTAATGCTTATTGTACATATACATTTCTTACA [XGTACX_site219]” to “ATTTTTTTTTTTTTTTCATGAAATTTTTTTTTTTTT [CACACA_negctrl_site1069]”, the “gcPBM binding intensity (ln)” value rises from 9.64 to 9.67.

Going from “AAATATTTTTTAATTGTTCACTTGGTGGATCATTAA [CACACA_negctrl_site922]” to “TATCCATTATTTAAAAGTACAAAAAACGATTTACAC [XGTACX_site2979]”, the “gcPBM binding intensity (ln)” value rises from 9.41 to 9.51.

Compared with “TTTTTTTTTCGCTTTTGTACACATTTTATAGAACAG [XGTACX_site2416]”, “TATTATATATATGGAAGTACAGGTATATCGTTTTTC [XGTACX_site3771]” is higher in “gcPBM binding intensity (ln)” value: 9.64 for the first, 9.66 for the second.

Compared with “TTTTCCCTTAACCTCTGTACATATAATTTTCTTTCC [XGTACX_site4180]”, “TAGAATATGTTTAGTTGTACAAAACAAAATGGAATT [XGTACX_site5293]” is higher in “gcPBM binding intensity (ln)” value: 9.7 for the first, 9.9 for the second.

Going from “CACATAAAAAAATAAACACACATATGTATATATATA [CACACA_site3177]” to “ATTTATTTTTTGTGTTCACACATTAGTATCATCTAT [CACACA_site5274]”, the “gcPBM binding intensity (ln)” value falls from 10.2 to 9.86.

Going from “TGCTTTTCTTTTTGCACACTTATGCATATATATATA [CACACA_site2583]” to “AAATAAGAAAAAGCGCGTACACATAACATTTTTATA [XGTACX_site8807]”, the “gcPBM binding intensity (ln)” value rises from 9.93 to 9.97.

Going from TTTATTCAAGGAATAGTGCATAATAATAAGTATTAT to TGTATTCTCTTAGTAGTGCATTTGAAGATTATATAA, the “gcPBM binding intensity (ln)” value falls from 9.52 to 9.43.

Compared with “ATTTTTCTAAAATACTGTACAAAGGTGCATAAAAAG [XGTACX_site4425]”, “TCTAATGATATATACACACACATATAGATTTATATA [CACACA_site7044]” is higher in “gcPBM binding intensity (ln)” value: 9.54 for the first, 10.2 for the second.

Going from “ATATTTATGGAATATACACACATGTATAATTATATA [CACACA_site2033]” to “TTTTCTGTTTTCATTACACACCTTACAAGAACAATA [CACACA_site2158]”, the “gcPBM binding intensity (ln)” value falls from 9.82 to 9.6.

Going from “GAAAACATTAAAAGTTAGATCATAAGAAAAGAATAT [GTGCAC_negctrl_site726]” to “ACATTATATAAAATATGTACATATAAAAAATTCTAT [XGTACX_site1617]”, the “gcPBM binding intensity (ln)” value rises from 9.76 to 9.77.

Compared with “GTTCATCACATATACACATGCATATTCTAATATGTA [TGCATGCA_site809]”, “CATATATGTGATAACACGCACACAAATGTATAGAAT [CACACA_site2594]” is higher in “gcPBM binding intensity (ln)” value: 9.87 for the first, 10.4 for the second.

Compared with “TTATCATTTGGACACGCACACACACCGAAAAAGAAA [CACACA_site8008]”, “TTTTTTGCTAAAAAGAGTACTAATAAAAAATTTATT [XGTACX_site5235]” is lower in “gcPBM binding intensity (ln)” value: 10.8 for the first, 9.21 for the second.

First: TTTTTGTAATTATATTAATATATATATATATATATA [CACACA_negctrl_site198]
Second: AATAATTTAAGGAATACACACAAGAAAAAAATAAGA [CACACA_site60]
The “gcPBM binding intensity (ln)” value of the first is lower: 9.54 for the first, 9.96 for the second.

Compared with “ACAAGAGAAGTAATTGCACACGTTGTTTCTTTTTCT [CACACA_site35]”, “CCACATATACAAAACACACACACAACGTTTTAATAA [CACACA_site1978]” is higher in “gcPBM binding intensity (ln)” value: 10.1 for the first, 10.7 for the second.

Going from “ATAATAATATAAAATACACACCTATTATTTTTACAA [CACACA_site6069]” to “TCACTATAGTAATTTACACACATTTGAAGAAAATGT [CACACA_site7626]”, the “gcPBM binding intensity (ln)” value falls from 9.92 to 9.85.

First: TATTTATTTATTTATGCATGCATGAATAATTTTTAC [TGCATGCA_site31]
Second: ATTATTTAGAAATGAGCACACAAAAAGAAGAATTTT [CACACA_site7913]
The “gcPBM binding intensity (ln)” value of the first is lower: 9.62 for the first, 9.75 for the second.

Compared with “TTTTAAATTTTTTAAAGTACACGTCGAAAAGGTATA [XGTACX_site76]”, “AAGAATTATATATTCACACAAAAAAAAAGTAAAAGA [CACACA_site5335]” is higher in “gcPBM binding intensity (ln)” value: 9.42 for the first, 9.75 for the second.

Going from “TATAATATATATATATGTACATATTATTTACATATA [XGTACX_site7312]” to “TTTTAACATAGAAGTACACACATATAATCAATCATA [CACACA_site5313]”, the “gcPBM binding intensity (ln)” value rises from 9.64 to 9.87.

Compared with “AAAAAAAAAAAAAAGAGTACATTTATTTATATATCT [XGTACX_site2381]”, “AATATATTAAATCTTACACACTAAAAAATATGTAAC [CACACA_site4325]” is higher in “gcPBM binding intensity (ln)” value: 9.47 for the first, 9.64 for the second.

First: TGTTTAACACATGTTTCAAACAAAAAAAAAAAGACA [CACACA_negctrl_site1356]
Second: TTTTATGAAAAATGGCTTATCTGTAAAGAAGTGGAG [CACACA_negctrl_site1586]
The “gcPBM binding intensity (ln)” value of the first is higher: 9.59 for the first, 9.43 for the second.

Compared with “ATAAAGAAAATATGGAGTACATTTATATCCAATATA [XGTACX_site3085]”, “ATATTTGTAATTATTAAACACACACTAATTATATAT [CACACA_site8803]” is higher in “gcPBM binding intensity (ln)” value: 9.62 for the first, 9.9 for the second.

Compared with “AAATATATACTACCGATGCACTAAATATAAACACAT [GTGCAC_site9777]”, “TTAATTTTTGAAGGTACACACTAATATATTAAATAT [CACACA_site4791]” is lower in “gcPBM binding intensity (ln)” value: 9.97 for the first, 9.57 for the second.

First: CTTTTAATTATAAAATGTACTTAAAAATAATAATAC [XGTACX_site635]
Second: AAAACAGACAAACACACACACACATATATATATATA [CACACA_site3393]
The “gcPBM binding intensity (ln)” value of the first is lower: 9.28 for the first, 10.6 for the second.

Going from “TTATCCCCCTATCATTGTACATTAATACAAACTAAA [XGTACX_site5630]” to “AAAATGAAACAAATATGTACACATATAAATATTTCC [XGTACX_site54]”, the “gcPBM binding intensity (ln)” value rises from 9.6 to 9.78.

Going from “TATGTAGTTTTAAAGTGTACTTATATATATTAATTG [XGTACX_site378]” to “ATAAATATATATATCACACATATATAATTATATATA [CACACA_site4787]”, the “gcPBM binding intensity (ln)” value rises from 9.52 to 9.61.

First: TACATACATATATTATGTACATATTTTATTTTTATT [XGTACX_site1642]
Second: TTTCTTTTAATAATTAAATATTTATTTATGATTATA [TGCATGCA_negctrl_site30]
The “gcPBM binding intensity (ln)” value of the first is higher: 9.85 for the first, 9.23 for the second.

Compared with AAAAAAAATTCGTGTGTGCGCATATATAATATATAA, “AAGCATACATCAAGCACACACACACCCACAGAGACA [CACACA_site4362]” is higher in “gcPBM binding intensity (ln)” value: 10.4 for the first, 10.5 for the second.

Going from “TCTATACCAGAAAAGGGTACATATTTTGGATTGAAC [XGTACX_site8402]” to “ATTATGCACCAACACACACACACACTCCTAAAAAAT [CACACA_site8822]”, the “gcPBM binding intensity (ln)” value rises from 9.53 to 11.

Compared with “ATTGCAAGTTACTTGTGTACTTATAAGATTAAAAGA [XGTACX_site7696]”, “TAATAATACCCAAGCACACACACACCCATATATATA [CACACA_site4831]” is higher in “gcPBM binding intensity (ln)” value: 9.6 for the first, 10.6 for the second.

Going from “AATATAAATAAAAACACACACAATGGTACATATATA [CACACA_site3671]” to “TACTGTGATAGCACCACACACGCAAAAGTGGGTATA [CACACA_site4749]”, the “gcPBM binding intensity (ln)” value falls from 10.2 to 9.88.

Going from “TTTAAATCGTTAAAAACACACAAAAAAAATCAATTA [CACACA_site2519]” to TCTTTTTCTTCTTATGTGCACATCAATTATGCTTCT, the “gcPBM binding intensity (ln)” value rises from 9.59 to 10.4.

Going from “GATAATTACGGACACACACACACACGCACAACTAAA [CACACA_site7254]” to “ACTATCATTCATAGGTGTACCTAAATATATATATAT [XGTACX_site1696]”, the “gcPBM binding intensity (ln)” value falls from 10.7 to 9.65.

Compared with “CGAATATATTCTAGACGTACTATATAATATATATAT [XGTACX_site4953]”, “TTATTTCGAAGAAAATGTACATATATAAATATATAC [XGTACX_site3308]” is lower in “gcPBM binding intensity (ln)” value: 9.49 for the first, 9.41 for the second.

Compared with “ATAATATTTTTTAATTGTACGTTCCATTTTTTTAAA [XGTACX_site1227]”, “ATAATAAAAATATATACATGCATTATTATATATATA [TGCATGCA_site799]” is lower in “gcPBM binding intensity (ln)” value: 9.61 for the first, 9.58 for the second.
